We go through 89 compounds from publication PMC4336329 (PLoS ONE, 2015).

About 2,200 (0.71%) of roughly 310,000 compounds showed an effect of 50% or more. Effects have a minus sign here. Some of the results follow.

Sequence of human ether-à-go-go-related gene (hERG) potassium channel (Q12809 whole entry, looked up): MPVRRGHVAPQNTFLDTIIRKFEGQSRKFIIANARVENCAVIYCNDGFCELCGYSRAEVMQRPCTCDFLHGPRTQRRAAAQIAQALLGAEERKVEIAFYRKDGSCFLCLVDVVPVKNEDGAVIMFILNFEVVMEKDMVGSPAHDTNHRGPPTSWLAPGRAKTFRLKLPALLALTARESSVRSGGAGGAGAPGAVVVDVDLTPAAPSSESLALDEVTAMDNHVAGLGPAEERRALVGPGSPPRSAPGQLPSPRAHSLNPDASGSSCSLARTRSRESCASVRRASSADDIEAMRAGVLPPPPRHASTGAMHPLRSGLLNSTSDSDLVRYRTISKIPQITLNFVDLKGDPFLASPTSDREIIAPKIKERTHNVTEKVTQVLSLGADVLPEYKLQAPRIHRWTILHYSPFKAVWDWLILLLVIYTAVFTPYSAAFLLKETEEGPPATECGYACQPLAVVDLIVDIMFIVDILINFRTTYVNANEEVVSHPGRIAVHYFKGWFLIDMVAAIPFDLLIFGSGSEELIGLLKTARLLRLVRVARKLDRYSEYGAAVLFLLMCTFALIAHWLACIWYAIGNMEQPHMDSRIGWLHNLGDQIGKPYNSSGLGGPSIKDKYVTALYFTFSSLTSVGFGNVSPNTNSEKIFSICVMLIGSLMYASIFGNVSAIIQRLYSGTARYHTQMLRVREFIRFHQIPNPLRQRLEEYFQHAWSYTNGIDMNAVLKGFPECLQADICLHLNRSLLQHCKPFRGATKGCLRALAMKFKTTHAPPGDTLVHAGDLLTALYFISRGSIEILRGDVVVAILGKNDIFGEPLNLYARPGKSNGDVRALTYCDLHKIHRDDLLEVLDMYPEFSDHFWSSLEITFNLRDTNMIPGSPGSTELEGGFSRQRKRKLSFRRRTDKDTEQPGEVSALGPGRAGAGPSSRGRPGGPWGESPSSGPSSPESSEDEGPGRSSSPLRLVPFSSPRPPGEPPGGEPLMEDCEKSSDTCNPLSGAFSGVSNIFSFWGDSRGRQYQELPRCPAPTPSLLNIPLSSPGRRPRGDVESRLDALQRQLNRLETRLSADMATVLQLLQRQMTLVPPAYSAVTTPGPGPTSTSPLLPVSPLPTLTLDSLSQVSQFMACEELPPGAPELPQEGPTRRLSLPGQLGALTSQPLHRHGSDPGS

The assay has as its target human ether-à-go-go-related gene (hERG) potassium channel (human, UniProt Q12809). Put plainly: primary screen, population patch clamp on CHO cells stably expressing hERG.
Regarding `Cl.OCCNc1nc(Nc2ccc(O)cc2)nc2ccccc12`, the “hERG current change (%, negative = inhibition) at 1uM” value was found to be 2.41%. In the case of `O=C(CSc1nnc(Cc2ccccc2)n1-c1ccccc1)N1CCOCC1` it was 1.74%. As for `COc1ccc(NC(=O)CSc2ccc3nnc(-c4ccccn4)n3n2)c(OC)c1`, the “hERG current change (%, negative = inhibition) at 1uM” value is given as -0.6%. In the case of `Cc1cc(C)nc(N/N=C/C2=C(O)CC(c3ccccc3)CC2=O)n1` (centres unmarked) it was 9.86%; in that of `Cc1ccc(S(=O)(=O)Oc2ccc(/C=C(/NC(=O)c3ccccc3)C(=O)Nc3ccccc3)cc2)cc1`, 16.6%. In the case of `Cn1c(SCC(=O)N2CCCc3ccccc32)nc2cccnc21` it was 14.5%.

Consider `CCC(=O)N1c2ccccc2C(N(C(=O)CC)c2ccccc2)CC1C` (centres unmarked), for which the “hERG current change (%, negative = inhibition) at 1uM” value turned out to be 6.77%. In the case of `COc1ccc(N2CC(C(=O)Nc3ccc(N4CCOCC4)cc3)CC2=O)cc1` (centres unmarked) it was 6.07%; in that of `COc1ccc(C(=O)Nc2cccc(C(=O)NCc3ccccc3)c2)cc1`, 10.2%. Take `COc1ccc(NC(=O)Nc2ccc(N(C)C)cc2)cc1`: the “hERG current change (%, negative = inhibition) at 1uM” value is on record as 17.4%. As for `CC1Cc2ccccc2N1C(=O)c1cc2cccnc2n(C)c1=O` (centres unmarked), the “hERG current change (%, negative = inhibition) at 1uM” value worked out at 13.4%.

Take `CC1(C)N=c2ccc([N+](=O)[O-])c(N)c2=[N+]1[O-]`: the “hERG current change (%, negative = inhibition) at 1uM” value is given as -1.78%. As for `O=C(Nc1ccnn1C1CCN(Cc2cccc(OCCO)c2)CC1)C1CC1`, the “hERG current change (%, negative = inhibition) at 1uM” value is listed as 13.8%. In the case of `Cn1nc(-c2ccccc2)cc1NC(=O)Nc1ccc(C(C)(C)C)cc1` it was 11.4%; in that of `CCOC(=O)c1cc(-c2ccccc2)n(CC2CC(c3ccc(OC)cc3)=NO2)n1` (centres unmarked), 4.59%; in that of `CN(C)c1cccc(C(=O)N2CCC(n3nccc3NC(=O)C3CCOC3)CC2)c1` (centres unmarked), 8.43%.

In the case of `COc1ccc(C(=O)NCCOc2cccc(OC)c2)cc1`, the “hERG current change (%, negative = inhibition) at 1uM” value is on record as 10.3%. In the case of `COc1ccccc1CNC(=O)c1cc(C(=O)CC(C)C)c[nH]1` it was 12%. For the compound `O=C(N/N=C1/CCSC1)c1cccc([N+](=O)[O-])c1`, the “hERG current change (%, negative = inhibition) at 1uM” value is -0.549%. In the case of `O=C(OCc1nc2ccccc2c(=O)[nH]1)c1cccs1` it was 22.6%; in that of `Cc1cccc(OCC(=O)N/N=C\C=C\c2ccc3c(c2)OCO3)c1C`, 5.45%; in that of `CCn1cc(/C=C(\NC(=O)c2ccccc2OC)C(=O)NCCCN2CCOCC2)c2ccccc21`, 2.07%.

As to `Cc1noc(C)c1COc1ccc(C(=O)N2CCCC(C(N)=O)C2)cc1` (centres unmarked), the “hERG current change (%, negative = inhibition) at 1uM” value turned out to be 3.83%.

As to `O=C1CN(C(=O)N[C@@H](Cc2ccccc2)C(=O)N[C@@H](C(=O)O)c2ccccc2)c2ccccc2N1`, the “hERG current change (%, negative = inhibition) at 1uM” value is 19.7%.

For the compound `O=C(CCc1nnc(-c2ccccc2)o1)NCC1CCN(C2CCCC2)CC1`, the “hERG current change (%, negative = inhibition) at 1uM” value is listed as 5.72%. Consider `CC(=O)N=c1sccn1CC(O)c1ccc(Br)cc1` (centres unmarked), for which the “hERG current change (%, negative = inhibition) at 1uM” value is on record as 15.6%.

Consider `Cc1cc(C)n(CC(=O)NCCC2=CCCCC2)n1`, for which the “hERG current change (%, negative = inhibition) at 1uM” value amounted to 10.5%. In the case of `N/C(=N\NC(=O)c1cccs1)c1cc2ccccc2oc1=O` it was 0.826%; in that of `Cn1c(=O)c2c(nc(NCC3CCCO3)n2C)n(C)c1=O` (centres unmarked), 3.17%; in that of `Cc1nc(N2CCc3ccccc3C2)[nH]c(=O)c1CCC(C)C`, 13.1%. In the case of `O=C(COc1ccc(Cl)cc1Cl)NN=C1c2ccccc2-c2ccccc21` it was 11.1%. As for `O=C(O)CC(c1ccc(Cl)cc1)N1Cc2ccccc2C1=O` (centres unmarked), the “hERG current change (%, negative = inhibition) at 1uM” value turned out to be 12.7%. In the case of `Cc1cc(C(=O)NC2CCCc3c2cnn3-c2ccccc2F)nc(C)n1` (centres unmarked) it was 24.3%; in that of `Cc1ccc(Oc2nc3c(C)cccn3c(=O)c2/C=C(\C#N)C(N)=O)cc1`, 9.93%; in that of `Cc1ccc(C(=O)Nc2c(C)n(C)n(-c3ccccc3)c2=O)cc1S(=O)(=O)N1CCOCC1`, 3.25%. In the case of `COC(=O)C1=C(c2cccc(C#N)c2)C[C@@H]2CC[C@H]1N2C(=O)NCCO` it was 18.4%; in that of `CCCC(=O)Nc1ccc(Cl)c(NC(=S)NC(=O)c2cc3ccccc3o2)c1`, 5.56%; in that of `O=C(CCN=C1NS(=O)(=O)c2ccccc21)N1CCc2ccccc2C1`, 12.4%. In the case of `CCOc1ccc(NS(=O)(=O)c2ccc(C(=O)NNC(=O)c3ccccc3O)cc2)cc1` it was 8.39%; in that of `CCCn1nc(NC(=O)COC)c2cc3cc(C)ccc3nc21`, 13.4%. In the case of `O/N=C(/CN(O)/C=C1/C=CC=N1)c1cccs1`, the “hERG current change (%, negative = inhibition) at 1uM” value turned out to be 7.13%.

Take `CCc1cc2c(SCC(=O)NC3CCS(=O)(=O)C3)ncnc2s1` (centres unmarked): the “hERG current change (%, negative = inhibition) at 1uM” value is on record as 5.8%.

Turning to `COc1ccc(NC(=O)CN2CCN(c3ccccc3Cl)CC2)cc1`, the “hERG current change (%, negative = inhibition) at 1uM” value amounted to 1.08%. For the compound `Br.COc1ccc(C(=O)CN2CC(C)SC2=Nc2ccc(Cl)cc2)cc1` (centres unmarked), the “hERG current change (%, negative = inhibition) at 1uM” value is reported as 11.8%. In the case of `O=C(NC(=S)Nc1ccccc1Cl)c1csnn1` it was 14%; in that of `CCOC(=O)c1cccc(OC(=O)CCNC(=O)c2ccc(Cl)cc2)c1`, -0.409%.

As for `CC1CC2(C)Oc3ccccc3CC2C(C)C1CNCCCN(C)C` (centres unmarked), the “hERG current change (%, negative = inhibition) at 1uM” value is 6.25%. Turning to `CCN1CCN(S(=O)(=O)c2cc3c(cc2Cl)NC(=O)CO3)CC1`, the “hERG current change (%, negative = inhibition) at 1uM” value amounted to 11%. In the case of `NC(=O)C1CCN(C(=O)Cn2cccc2C(=O)c2ccccc2)CC1` it was 10.1%; in that of `CC(C)Cn1c(N)c(C(=O)COC(=O)c2cc(-c3ccco3)nc3ccccc23)c(=O)n(C)c1=O`, 16.2%. In the case of `Cc1ccc(OCC(=O)NCc2ccccn2)cc1` it was 6.06%; in that of `Cc1cc(=O)n2[nH]c(-c3ccc(Cl)cc3)cc2n1`, 14.4%; in that of `O=C(CCCN1C(=O)/C(=C/c2cccs2)SC1=S)NNC(=O)c1ccc(F)cc1`, 6.5%.

For the compound `Cc1cccc(NC(=O)CN2CCN(C(=O)C3CCCO3)CC2)c1C` (centres unmarked), the “hERG current change (%, negative = inhibition) at 1uM” value came out at 5.32%. In the case of `Cc1cccc(NC(=O)CSc2nnc(C)c(C)n2)c1` it was 17.1%; in that of `COc1ccc(O)c(-c2cc(-c3ccccc3Cl)[nH]n2)c1`, 13%; in that of `Cl.O=c1c(-c2ccccc2)c(O)nc(SCCN2CCOCC2)n1-c1ccccc1`, 22.1%. In the case of `Cc1cccc(C(=O)Nc2nnc(-c3cccnc3)o2)c1` it was 0.882%. In the case of `O=[N+]([O-])c1cc(O)c2ncccc2c1` it was 5.62%. Turning to `CC(C)c1nnc(NC(=O)CN2C(=O)c3ccccc3C2=O)s1`, the “hERG current change (%, negative = inhibition) at 1uM” value is 1.84%. In the case of `COc1cccc(C(=O)NN2CCOCC2)c1` it was 6.58%; in that of `CCCN(CCC)S(=O)(=O)c1nc2nc(C)cc(C)n2n1`, 1.33%; in that of `CC(NCc1cccc(S(=O)(=O)N(C)C)c1)c1ccc(F)cc1` (centres unmarked), 9.06%. In the case of `CC(=O)c1ccccc1NC(=O)c1ccc2c(c1)NC(=O)C(C)S2` (centres unmarked) it was 2.68%; in that of `CCc1nc2ccc(C(=O)NC3CCC(C)CC3)cc2nc1CC` (centres unmarked), -7.1%; in that of `Cc1ccc(C)c(-n2sc3ccc(F)cc3c2=O)c1`, 17.7%. `COC(=O)CC1=NN(c2ccccc2)C(=O)/C1=C\c1ccc(OC)cc1`: the “hERG current change (%, negative = inhibition) at 1uM” value came out at 7.42%. In the case of `COC(=O)NNC(=O)C1CCC(C(=O)NNC(=O)OC)CC1` (centres unmarked) it was 4.56%. In the case of `Cc1c(/C=C2\NC(=O)NC2=O)c2ccccc2n1C` it was 10.9%; in that of `Cc1ccc(S(=O)(=O)c2c(C)cc(C)nc2Oc2cccc(C(F)(F)F)c2)cc1`, 14.5%; in that of `O=C(COC(=O)c1ccc[nH]c1=O)Nc1cc(S(=O)(=O)N2CCCCC2)ccc1Cl`, 7.27%. As to `COc1cccc(C(=O)Cn2c(Br)nc3c2c(=O)n(C)c(=O)n3C)c1`, the “hERG current change (%, negative = inhibition) at 1uM” value is listed as -4.04%. In the case of `O=C(N/N=C/c1ccncc1)c1ccc(NS(=O)(=O)c2cccs2)cc1` it was 9.43%; in that of `COc1ccc(Cn2c(=O)[nH]c3cc(C(=O)NC4CCCC4)ccc3c2=O)cc1`, 8.84%. In the case of `Cc1cccc(C)c1N(CC(=O)NCc1ccco1)C(=O)CNS(=O)(=O)c1ccc(F)cc1` it was 3.59%; in that of `CN(Cc1ccccc1)C(=O)CSc1nc2ccccc2c(=O)n1Cc1ccco1`, 5.63%; in that of `CCCCNC(=S)NNC(=O)c1cc(-c2ccncc2)nc2ccccc12`, 18.7%. Take `CCN(C(=O)COC(=O)CCC(=O)c1cccs1)c1c(N)n(Cc2ccccc2)c(=O)[nH]c1=O`: the “hERG current change (%, negative = inhibition) at 1uM” value was determined as 3.9%. For the compound `O=C1/C(=C\c2cc3c(cc2Br)OCO3)N2CCC1CC2`, the “hERG current change (%, negative = inhibition) at 1uM” value is reported as 15.2%. For `CC(C)[C@H](NC(=O)c1ccccc1)C(=O)OCC(=O)c1ccc2c(c1)NC(=O)CO2`, the “hERG current change (%, negative = inhibition) at 1uM” value is on record as -2.99%. In the case of `CSc1nnc(C2CCNCC2)n1C.Cl` it was 10.9%; in that of `COc1ccccc1NC(=O)C1=C(C)Nc2ncnn2C1c1cccs1` (centres unmarked), 13.7%; in that of `CCC(=O)N1N=C(c2ccc(C)o2)CC1c1ccc(OC)cc1` (centres unmarked), 13%. Regarding `CCOCCc1c(O)nc(SCC(=O)N2CCOCC2)[nH]c1=O`, the “hERG current change (%, negative = inhibition) at 1uM” value was found to be 13.6%. In the case of `CC(=O)C(Sc1ccc2nnc(-c3ccc(F)cc3)n2n1)C(C)=O` it was 13.5%; in that of `CCn1c(/C=C/c2ccc(F)cc2)nc2ccccc2c1=O`, 7.01%. In the case of `CCC(c1nnnn1C(C)(C)CC)N(CCCN1CCOCC1)Cc1cc2cccc(C)c2[nH]c1=O` (centres unmarked) it was 0.0911%.

`CCCNC(=O)NC(=O)CSc1nncs1`: the “hERG current change (%, negative = inhibition) at 1uM” value turned out to be 25%. In the case of `CCOC(=O)CCSCC(=O)N1N=C(c2cccs2)CC1c1ccc(C)cc1` (centres unmarked) it was 8.6%.
